Results as given in patent US20200030425 (published 2020).
“And” between values parts separate entries of the source, which are not always exact repeats. Identical values can stand only once.

Biological target: T1, human ICOS on activated CD4+ T cells (human)
T1 chain: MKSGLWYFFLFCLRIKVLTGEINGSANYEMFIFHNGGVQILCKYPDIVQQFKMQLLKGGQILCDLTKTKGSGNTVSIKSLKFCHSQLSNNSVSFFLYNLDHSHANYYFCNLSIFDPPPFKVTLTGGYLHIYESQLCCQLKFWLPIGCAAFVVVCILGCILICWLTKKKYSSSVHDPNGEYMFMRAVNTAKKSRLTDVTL
Test: FACS

B1: ICOS.33 IgG1f S267E (antibody)
chain 1: EVQLVESGGGLVKPGGSLRLSCAASGFTFSDYFMHWVRQAPGKGLEWVGVIDTKSFNYATYYSDLVKGRFTISRDDSKNTLYLQMNSLKTEDTAVYYCTATIAVPYYFDYWGQGTLVTVSSASTKGPSVFPLAPSSKSTSGGTAALGCLVKDYFPEPVTVSWNSGALTSGVHTFPAVLQSSGLYSLSSVVTVPSSSLGTQTYICNVNHKPSNTKVDKRV[human IgG1 Fc with changes not shown]
chain 2: DIQMTQSPSSLSASVGDRVTITCQASQDISNYLSWYQQKPGKAPKLLIYYTNLLAEGVPSRFSGSGSGTDFTFTISSLQPEDIATYYCQQYYNYRTFGPGTKVDIKRTVAAPSVFIFPPSDEQLKSGTASVVCLLNNFYPREAKVQWKVDNALQSGNSQESVTEQDSKDSTYSLSSTLTLSKADYEKHKVYACEVTHQGLSSPVTKSFNRGEC
**Q.** B1 was tested. Which EC50 did it give?
**A.** Its EC50 is ~0.07 µg/mL and ~0.08 µg/mL.
